T1: RBFOX1 RRM (Homo sapiens, UniProt Q9NWB1 109-208)
T1 sequence: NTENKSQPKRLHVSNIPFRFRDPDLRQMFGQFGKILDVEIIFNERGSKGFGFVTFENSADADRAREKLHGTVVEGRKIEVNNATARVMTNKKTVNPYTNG

B1: AUGGGGC (DNA:RNA)
RNA: GGGAGACCGGAAUUCAGAUUGUCCAUGGGGCUUAAAUCCCGUCGUAGCCACCA
DNA 1: CAATCTGAATTCCGGTCTCCC
DNA 2: TGGTGGCTACGACGGGATT
B2: GGCCUCG (DNA:RNA)
RNA: GGGAGACCGGAAUUCAGAUUGUCCGGCCUCGUUAAAUCCCGUCGUAGCCACCA
DNA 1: CAATCTGAATTCCGGTCTCCC
DNA 2: TGGTGGCTACGACGGGATT
B3: UUUUGUC (DNA:RNA)
RNA: B1 RNA with A25U, G27U, G28U, G30U
DNA 1: CAATCTGAATTCCGGTCTCCC
DNA 2: TGGTGGCTACGACGGGATT
B4: UGUAUCC (DNA:RNA)
RNA: B2 RNA with G25U, C27U, C28A, G31C
DNA 1: CAATCTGAATTCCGGTCTCCC
DNA 2: TGGTGGCTACGACGGGATT
B5: AGCUAAU (DNA:RNA)
RNA: B2 RNA with G25A, C28U, U29A, C30A, G31U
DNA 1: CAATCTGAATTCCGGTCTCCC
DNA 2: TGGTGGCTACGACGGGATT
B6: UUGUUCU (DNA:RNA)
RNA: B1 RNA with A25U, G28U, G29U, G30C, C31U
DNA 1: CAATCTGAATTCCGGTCTCCC
DNA 2: TGGTGGCTACGACGGGATT
B7: UCUGUCC (DNA:RNA)
RNA: B1 RNA with A25U, U26C, G27U, G29U, G30C
DNA 1: CAATCTGAATTCCGGTCTCCC
DNA 2: TGGTGGCTACGACGGGATT
B8: UGGCAGC (DNA:RNA)
RNA: B1 RNA with A25U, U26G, G28C, G29A
DNA 1: CAATCTGAATTCCGGTCTCCC
DNA 2: TGGTGGCTACGACGGGATT
B9: GAAAUUA (DNA:RNA)
RNA: B2 RNA with G26A, C27A, C28A, C30U, G31A
DNA 1: CAATCTGAATTCCGGTCTCCC
DNA 2: TGGTGGCTACGACGGGATT
B10: CGCCUGA (DNA:RNA)
RNA: B2 RNA with G25C, C30G, G31A
DNA 1: CAATCTGAATTCCGGTCTCCC
DNA 2: TGGTGGCTACGACGGGATT
B11: CUCUAUG (DNA:RNA)
RNA: B2 RNA with G25C, G26U, C28U, U29A, C30U
DNA 1: CAATCTGAATTCCGGTCTCCC
DNA 2: TGGTGGCTACGACGGGATT
B12: CGAGACA (DNA:RNA)
RNA: B2 RNA with G25C, C27A, C28G, U29A, G31A
DNA 1: CAATCTGAATTCCGGTCTCCC
DNA 2: TGGTGGCTACGACGGGATT
B13: UCUAAUU (DNA:RNA)
RNA: GGGAGACCGGAAUUCAGAUUGUCCUCUAAUUUUAAAUCCCGUCGUAGCCACCA
DNA 1: CAATCTGAATTCCGGTCTCCC
DNA 2: TGGTGGCTACGACGGGATT
B14: AGUAUAC (DNA:RNA)
RNA: B1 RNA with U26G, G27U, G28A, G29U, G30A
DNA 1: CAATCTGAATTCCGGTCTCCC
DNA 2: TGGTGGCTACGACGGGATT
B15: UGGGGAU (DNA:RNA)
RNA: B1 RNA with A25U, U26G, G30A, C31U
DNA 1: CAATCTGAATTCCGGTCTCCC
DNA 2: TGGTGGCTACGACGGGATT
B16: GCGGCCA (DNA:RNA)
RNA: B1 RNA with A25G, U26C, G29C, G30C, C31A
DNA 1: CAATCTGAATTCCGGTCTCCC
DNA 2: TGGTGGCTACGACGGGATT
B17: AACGCGU (DNA:RNA)
RNA: B1 RNA with U26A, G27C, G29C, C31U
DNA 1: CAATCTGAATTCCGGTCTCCC
DNA 2: TGGTGGCTACGACGGGATT
B18: GACCAAC (DNA:RNA)
RNA: B2 RNA with G26A, U29A, C30A, G31C
DNA 1: CAATCTGAATTCCGGTCTCCC
DNA 2: TGGTGGCTACGACGGGATT
B19: CCUCAUA (DNA:RNA)
RNA: B13 RNA with U25C, A28C, U31A
DNA 1: CAATCTGAATTCCGGTCTCCC
DNA 2: TGGTGGCTACGACGGGATT
B20: ACUCCAA (DNA:RNA)
RNA: B13 RNA with U25A, A28C, A29C, U30A, U31A
DNA 1: CAATCTGAATTCCGGTCTCCC
DNA 2: TGGTGGCTACGACGGGATT

Substitutions are numbered along the chain they refer to; changes in the protein carry UniProt numbers. The list shows a part of the results.

In this assay the target is T1, RBFOX1 RRM. The experiment in a line: EMSA; HiTS-Eq, 1 nM pool, 10 min; buffer printed only for the single-RNA assays: 10 mM Tris pH 7.5, 150 mM NaCl, 3.4 mM EDTA, 0.001% NP-40, 30 C. Particulars: tags: His6 N-terminal (pET28a); label: 5' 32P. The essentials: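 A pool of RNA with 7 randomized nucleotides, 5′-radiolabelled and with DNA-annealed flanks, was equilibrated at 1 nM for 10 min in 50 µL with purified RbFox RRM, wild type or mutant, across increasing protein concentrations. Free RNA was separated by 8% native PAGE, excised, reverse-transcribed, barcoded by PCR and sequenced. Relative association constants were obtained from read-count changes of each RNA species versus the control reaction and normalised to the cognate motif.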
On to B1, for which the binding signal is 0.0109 KA relative to UGCAUGU.
For B2 the value was 0.0181 KA relative to UGCAUGU; for B3, 0.0234 KA relative to UGCAUGU; for B4, 0.00808 KA relative to UGCAUGU.
The figure for B5 is 0.0041 KA relative to UGCAUGU.
For B6 the value was 0.0231 KA relative to UGCAUGU; for B7, 0.00944 KA relative to UGCAUGU; for B8, 0.0144 KA relative to UGCAUGU.
For B9, the binding signal is 0.004 KA relative to UGCAUGU.
The figure for B10 is 0.0212 KA relative to UGCAUGU; for B11 it is 0.013 KA relative to UGCAUGU.
B12: the binding signal is 0.0066 KA relative to UGCAUGU.
For B13 the value was 0.00397 KA relative to UGCAUGU.
For B14 the value was 0.0035 KA relative to UGCAUGU; for B15, 0.0193 KA relative to UGCAUGU; for B16, 0.0176 KA relative to UGCAUGU.
For B17 the value was 0.00909 KA relative to UGCAUGU.
Take B18: the binding signal was 0.00558 KA relative to UGCAUGU.
The figure for B19 is 0.00439 KA relative to UGCAUGU; for B20 it is 0.000959 KA relative to UGCAUGU.

For the origin of these results see publication PMC9911399, “Two distinct binding modes provide the RNA-binding protein RbFox with extraordinary sequence specificity”.
